Assay results as given in the supplement of paper PMC4166925.
± gives the standard deviation of the averaged measurements. Over roughly 33,000 sequences, “E-score (dimensionless, -0.5 to 0.5)” has its median near -0.046; the highest 2% begin near 0.36. Some of the results follow.

test system: T1, SpTbr T-box DNA-binding domain (GST fusion); test: PBM E-score of 8-mer (E-score (dimensionless, -0.5 to 0.5)); Tbr is Tbrain of the sea star Patiria miniata (Pm) or the sea urchin Strongylocentrotus purpuratus (Sp); higher = stronger binding preference; most listed sequences are background and not binding sites; conditions: the construct has about 5 more residues each side
T1 sequence: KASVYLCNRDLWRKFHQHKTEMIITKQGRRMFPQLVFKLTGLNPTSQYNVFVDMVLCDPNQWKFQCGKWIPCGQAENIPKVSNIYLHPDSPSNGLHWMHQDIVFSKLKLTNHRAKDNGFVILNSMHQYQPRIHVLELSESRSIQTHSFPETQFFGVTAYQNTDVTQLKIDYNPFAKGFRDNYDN
How it was run: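 Expression of GST-fused Tbr T-box DNA-binding domains, each holding the full T-box plus roughly five flanking residues, was carried out in BL21 E. coli at 20 °C, with purification by glutathione affinity chromatography. Universal Agilent arrays made double-stranded by primer extension were incubated with the protein at 200 nM in PBS (pH 7.5), then scanned and quantified. All ungapped 8-mers were scored from probe intensities, and each received an enrichment E-score from the Universal PBM Analysis Suite, averaged over duplicate arrays.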

In order of rising “PBM E-score of 8-mer” value:
1. AGGCCCTC  -0.375 ± 0.068
2. TAGGGCAA  -0.321 ± 0.024
3. GGGACCCC  -0.306 ± 0.0076
4. ATAATGTA  -0.303 ± 0.025
5. AGGGCAGG  -0.285 ± 0.058
6. AATTAAGA  -0.276 ± 0.046
7. GCCCTCCC  -0.274 ± 0.044
8. ATATCCTG  -0.272 ± 0.034
9. CATGTCCA  -0.269 ± 0.052
10. GTACTGGA  -0.256 ± 0.056
11. CCCTAATA  -0.254 ± 0.0084
12. ATTTATAG  -0.248 ± 0.074
13. ATCGGCCG  -0.2382 ± 0.0013
14. GAGGGCCA  -0.232 ± 0.072
15. AGGCATCG  -0.23 ± 0.05
16. CTTCCCTA  -0.22388 ± 0.00013
17. ATCAAATC  -0.22 ± 0.01
18. ATGGACAT  -0.213 ± 0.018
19. ATTGGATA  -0.212 ± 0.011
20. ATTAATTC  -0.207 ± 0.076
21. CAAAATAC  -0.206 ± 0.0041
22. ATATTACG  -0.204 ± 0.045
23. GGGCACCC  -0.2 ± 0.022
24. CCAATTGA  -0.188 ± 0.042
25. ATCTTATG  -0.187 ± 0.032
26. CATTCAGC  -0.185 ± 0.052
27. CTACAGCA  -0.181 ± 0.015
28. GACCCAAA  -0.18 ± 0.054
29. CATTGTGG  -0.178 ± 0.048
30. GATCAGAA  -0.177 ± 0.034
31. CTACCCAA  -0.174 ± 0.042
32. ACTATGAT  -0.173 ± 0.003
33. AACCCATC  -0.169 ± 0.053
34. ATGCACTA  -0.168 ± 0.035
35. GAGGCCAA  -0.16 ± 0.036
36. CTCCAATA  -0.156 ± 0.004
37. AAGGGCAA  -0.154 ± 0.066
38. CATGAAAC  -0.146 ± 0.031
39. CATTAGAA  -0.146 ± 0.024
40. CCTCTTTA  -0.14 ± 0.026
41. ACAGACTG  -0.139 ± 0.066
42. ATATGCGG  -0.139 ± 0.049
43. GAGTCTGC  -0.138 ± 0.081
44. ACGTTGGA  -0.135 ± 0.066
45. CAGTCATA  -0.132 ± 0.016
46. AACGAGAT  -0.132 ± 0.043
47. ACTGGGTA  -0.132 ± 0.036
48. CTAGACAG  -0.13 ± 0.095
49. CTACAAAG  -0.129 ± 0.029
50. CCCGTAAG  -0.129 ± 0.07
51. AACGGGGT  -0.127 ± 0.006
52. CGGGAGGA  -0.127 ± 0.073
53. ACCCGACC  -0.126 ± 0.01
54. GGAAACCA  -0.125 ± 0.01
55. GCATTCAA  -0.124 ± 0.036
56. AATATCGT  -0.123 ± 0.002
57. AACTCTAG  -0.123 ± 0.014
58. CGTTCTAG  -0.121 ± 0.0086
59. ATTATTGG  -0.12 ± 0.033
60. CAGATCGG  -0.115 ± 0.015
61. ACTCCCAA  -0.114 ± 0.051
62. CATAAGTA  -0.114 ± 0.018
63. GAAGGACA  -0.112 ± 0.03
64. ACCAGTAT  -0.111 ± 0.068
65. ATACCCCG  -0.108 ± 0.072
66. AGATCCCT  -0.108 ± 0.031
67. AGACGTCG  -0.0995 ± 0.079
68. TACCACTA  -0.0994 ± 0.024
69. CAAGTACC  -0.095 ± 0.12
70. TACGTCCA  -0.0945 ± 0.018
71. GCCTTTTA  -0.0926 ± 0.034
72. GAACGTAA  -0.0925 ± 0.029
73. ACTAAAAA  -0.09237 ± 0.00071
74. AGCCGCTC  -0.0902 ± 0.017
75. AGGGACGC  -0.089 ± 0.12
76. AGGCCTAC  -0.0867 ± 0.044
77. GAGACATA  -0.0863 ± 0.009
78. AGAACGTC  -0.086 ± 0.067
79. GTAGACCA  -0.0855 ± 0.051
80. AAAATGAG  -0.0804 ± 0.053
81. GATCGACC  -0.0795 ± 0.055
82. GTAAAGAC  -0.0781 ± 0.036
83. ACAAAGGA  -0.0763 ± 0.049
84. GTTATTCA  -0.0759 ± 0.052
85. GTCATGGA  -0.0759 ± 0.081
86. TAAGTGAA  -0.0758 ± 0.051
87. AGGTCGGC  -0.0758 ± 0.092
88. GGCTTACC  -0.0755 ± 0.061
89. AATGGTAA  -0.0737 ± 0.019
90. GGCCTGAA  -0.0727 ± 0.012
91. ATGGGACA  -0.0727 ± 0.059
92. CGTACAGC  -0.0716 ± 0.023
93. GGGGAAGA  -0.0658 ± 0.0073
94. CCCTCAAA  -0.0653 ± 0.13
95. ACGATGAG  -0.0616 ± 0.043
96. GCTATCTA  -0.0579 ± 0.033
97. CAGGACAG  -0.0574 ± 0.018
98. ATGATTAA  -0.0561 ± 0.013
99. CCTAGATC  -0.0537 ± 0.0026
100. CCCTGGTA  -0.0536 ± 0.066
101. GAAGCGAA  -0.0531 ± 0.12
102. AATTGAGA  -0.0508 ± 0.076
103. AAGAAACA  -0.0506 ± 0.011
104. ACCATCCC  -0.0478 ± 0.032
105. CCAAGTAC  -0.0466 ± 0.056
106. ACTAGTAC  -0.0462 ± 0.018
107. GACGGTAA  -0.0456 ± 0.024
108. ACAGCGTA  -0.0419 ± 0.011
109. AGCCGCTG  -0.0377 ± 0.025
110. ACAAATGC  -0.0364 ± 0.03
111. CGCCTGAG  -0.0319 ± 0.0048
112. CCGCTTGA  -0.0306 ± 0.035
113. GGAGTGGA  -0.03 ± 0.12
114. CGTTTCAA  -0.029 ± 0.015
115. CAAACTGA  -0.0249 ± 0.0038
116. GCACGGCC  -0.0241 ± 0.019
117. ACCTCTTC  -0.0239 ± 0.026
118. AGTCCCGC  -0.0227 ± 0.052
119. GATCTTCA  -0.0222 ± 0.061
120. AGGGATCA  -0.022 ± 0.095
121. AAATTTCA  -0.0215 ± 0.17
122. GCCCTGAC  -0.0195 ± 0.058
123. ATTCATTA  -0.0182 ± 0.06
124. ACTCTGCA  -0.014 ± 0.021
125. CAACCTAA  -0.0131 ± 0.11
126. ACCATTTC  -0.0127 ± 0.03
127. GTAGTGTA  -0.0121 ± 0.013
128. CGGTATAA  -0.0109 ± 0.074
129. AGTATCGG  -0.0105 ± 0.054
130. GAAATAAA  -0.00915 ± 0.082
131. AATGATCG  -0.00734 ± 0.11
132. GCTAAAGC  -0.00702 ± 0.053
133. ACCACGAG  -0.00539 ± 0.052
134. CATGGACA  -0.00426 ± 0.0041
135. CGCCCGTA  -0.0039 ± 0.045
136. AATGACGG  -0.0019 ± 0.0025
137. CTCGAAAG  -0.00025 ± 0.0061
138. ACTCCAAA  0.00039 ± 0.0059
139. CACTGAGC  0.00197 ± 0.0073
140. AAGCCGTG  0.00206 ± 0.0093
141. GAAAGGCA  0.00213 ± 0.013
142. TACACTGA  0.00374 ± 0.063
143. AGAATACA  0.00377 ± 0.032
144. CGGGTTTC  0.00543 ± 0.0079
145. AGACTGGC  0.00567 ± 0.0024
146. CGGACGCA  0.00632 ± 0.00052
147. GGCAAGAC  0.0122 ± 0.011
148. TCCCAGCA  0.0137 ± 0.013
149. CAATCAAC  0.0141 ± 0.025
150. ACATTAGC  0.0163 ± 0.082
151. AAAGGACA  0.0207 ± 0.05
152. GCGAGCCA  0.0215 ± 0.041
153. TAGCCGCA  0.0217 ± 0.05
154. GCTGTTGA  0.0254 ± 0.016
155. AGCAACCC  0.0294 ± 0.035
156. AGAAAACA  0.0295 ± 0.051
157. CAGCCTTC  0.0325 ± 0.001
158. ACTCTACG  0.0339 ± 0.099
159. CTGTTGCA  0.0393 ± 0.061
160. CTGGTAAC  0.0436 ± 0.03
161. CATCGTTA  0.0458 ± 0.0019
162. AGCGCCAT  0.0577 ± 0.043
163. AACAGATT  0.0599 ± 0.037
164. AGTTTCTC  0.06 ± 0.046
165. CCGATTAC  0.07 ± 0.041
166. CAGCTATG  0.0757 ± 0.064
167. CGTTAAGC  0.0779 ± 0.00084
168. CACAGGGG  0.0864 ± 0.031
169. ACATTCGT  0.0884 ± 0.062
170. ACCTGCGC  0.0909 ± 0.023
171. AAATGTAA  0.0931 ± 0.041
172. AGCTTGTC  0.098 ± 0.066
173. GATTCTCA  0.106 ± 0.068
174. AGCGATAT  0.11 ± 0.017
175. AAAACGCC  0.113 ± 0.023
176. CTTCACTC  0.115 ± 0.059
177. GAGACCAA  0.115 ± 0.032
178. CTCCTCGC  0.117 ± 0.07
179. AACAGGCG  0.135 ± 0.075
180. GCGTGGCA  0.136 ± 0.016
181. GACCTCAC  0.137 ± 0.049
182. GATGGCGA  0.142 ± 0.012
183. CGGTTAAC  0.146 ± 0.035
184. CAATTAGG  0.147 ± 0.066
185. ACTTACTC  0.147 ± 0.023
186. ACGGAGTG  0.154 ± 0.025
187. CCACCCCA  0.157 ± 0.027
188. CGACCGCG  0.163 ± 0.0064
189. ATCGCTAG  0.165 ± 0.0081
190. CCCTAACA  0.17 ± 0.033
191. GTCGACGA  0.171 ± 0.063
192. CGGAAACC  0.175 ± 0.018
193. AAGGAGGT  0.185 ± 0.028
194. CACTGTGC  0.188 ± 0.041
195. CCTGTCGA  0.194 ± 0.0047
196. CAATGACA  0.203 ± 0.013
197. AAAACACT  0.205 ± 0.1
198. GTCGCGCA  0.219 ± 0.027
199. AAGCTGTC  0.223 ± 0.066
200. ACCTGGCA  0.227 ± 0.034
201. CGCCACCC  0.237 ± 0.046
202. ACCCGTGA  0.248 ± 0.011
203. AGTTGCCA  0.25162 ± 0.00012
204. CGCCTCGC  0.256 ± 0.0026
205. ATCACCTG  0.304 ± 0.022
206. ACTTGTCG  0.308 ± 0.031
207. CAGTGTTA  0.31 ± 0.028
208. CTGCTAAC  0.321 ± 0.029
209. AGTGACAG  0.3301 ± 0.0022
210. GTGTGCAA  0.349 ± 0.0091
211. TGCTAACA  0.369 ± 0.022
212. ACCACACC  0.369 ± 0.029
213. TCACACGA  0.387 ± 0.0091
214. CACCTATA  0.392 ± 0.015
215. CGATCACA  0.396 ± 0.0068
216. CACCTTCA  0.412 ± 0.0047
217. TGCGAACA  0.419 ± 0.015
218. GTGAGAAC  0.4469 ± 0.0042
219. ACACACCT  0.44741 ± 0.0002
